Test results published in patent publication US11618753B2 (priority 2018, dated 2023).

Test system: MLKL phosphorylation, HT29-L23 human colorectal adenocarcinoma cells
Experiment: cells
Conditions: read-out: pMLKL HCS Cell Assay (IC50, uM)

| Compound | IC50 [µM] |
| --- | --- |
| Cc1nc(C)c(-c2cc(C(F)(F)F)c3c(N)ncnn23)cc1C(=O)N[C@@H]1CN(C(=O)CC(C)C)C[C@@H]1F [Example 1195, 5-[4-amino-5-(trifluoromethyl)pyrrolo[2,1-f][1,2,4]triazin-7-yl]-N-[(3R,4S)-4-fluoro-1-(3-methylbutanoyl)pyrrolidin-3-yl]-2,6-dimethylpyridine-3-carboxamide] | 0.041 |
| Nc1ncnn2c(-c3ccc(C(F)(F)F)c(C(=O)N[C@@H]4CN(C(=O)c5ccccc5F)C[C@@H]4F)c3)cc(C(F)(F)F)c12 [Example 906, 5-[4-amino-5-(trifluoromethyl)pyrrolo[2,1-f][1,2,4]triazin-7-yl]-N-[(3R,4S)-4-fluoro-1-(2-fluorobenzoyl)pyrrolidin-3-yl]-2-(trifluoromethyl)benzamide] | 0.02 |
| COc1ncc(-c2cc(C(F)(F)F)c3c(N)ncnn23)cc1C(=O)NC1CCN(C(=O)OC(C)(C)C)C1 (stereo not shown) [Example 11, tert-butyl (35)-3-{5-[4-amino-5-(trifluoromethyl)pyrrolo[2,1-f][1,2,4]triazin-7-yl]-2-methoxypyridine-3-amido}pyrrolidine-1-carboxylate] | 0.153 |
| COc1c(F)cc(-c2cc(C(F)(F)F)c3c(N)ncnn23)cc1C(=O)N[C@@H]1CN(C(=O)C2CC2(F)F)C[C@@H]1F (stereo partly drawn) [Example 697, 5-[4-amino-5-(trifluoromethyl)pyrrolo[2,1-f][1,2,4]triazin-7-yl]-N-[(3R,4S)-1-(2,2-difluorocyclopropanecarbonyl)-4-fluoropyrrolidin-3-yl]-3-fluoro-2-methoxybenzamide] | 0.032 |
| COc1ncc(-c2cc(C(F)(F)F)c3c(N)ncnn23)cc1C(=O)N[C@@H]1CN(C(=O)Oc2ccccc2)C[C@@H]1F [Example 1421, phenyl (3R,4S)-3-{5-[4-amino-5-(trifluoromethyl)pyrrolo[2,1-f][1,2,4]triazin-7-yl]-2-methoxypyridine-3-amido}-4-fluoropyrrolidine-1-carboxylate] | 0.274 |
| COc1ncc(-c2cc(C(F)(F)F)c3c(N)ncnn23)cc1C(=O)N[C@@H]1CN(S(=O)(=O)c2cccnc2)C[C@@H]1F [Example 506, 5-[4-amino-5-(trifluoromethyl)pyrrolo[2,1-f][1,2,4]triazin-7-yl]-N-[(3R,4S)-4-fluoro-1-(pyridine-3-sulfonyl)pyrrolidin-3-yl]-2-methoxypyridine-3-carboxamide] | 0.094 |
| COc1ncc(-c2cc(CN3CC4(COC4)C3)c3c(N)ncnn23)cc1C(=O)N[C@@H]1CN(C(=O)C2CC(F)(F)C2)C[C@@H]1F [Example 496, 5-[4-amino-5-({2-oxa-6-azaspiro[3.3]heptan-6-yl}methyl)pyrrolo[2,1-f][1,2,4]triazin-7-yl]-N-[(3R,4S)-1-(3,3-difluorocyclobutanecarbonyl)-4-fluoropyrrolidin-3-yl]-2-methoxypyridine-3-carboxamide] | 0.013 |
| COc1ncc(-c2cc(C(F)(F)F)c3c(N)ncnn23)cc1C(=O)N[C@@H]1CN(C(=O)N2CCCCC2)C[C@@H]1F [Example 1844, 5-(4-amino-5-(trifluoromethyl)pyrrolo[2,1-f][1,2,4]triazin-7-yl)-N-((3R,4S)-4-fluoro-1-(piperidine-1-carbonyl)pyrrolidin-3-yl)-2-methoxynicotinamide] | 0.12 |
| COc1ncc(-c2cc(C(F)(F)F)c3c(N)ncnn23)cc1C(=O)N[C@@H]1CN(C(=O)OCC(F)(F)F)C[C@@H]1F [Example 1437, 2,2,2-trifluoroethyl (3R,4S)-3-{5-[4-amino-5-(trifluoromethyl)pyrrolo[2,1-f][1,2,4]triazin-7-yl]-2-methoxypyridine-3-amido}-4-fluoropyrrolidine-1-carboxylate] | 0.003 |
| COc1ncc(-c2cc(C(F)(F)F)c3c(N)ncnn23)cc1C(=O)NC1CN(Cc2nnnn2C2CC2)CC1F (racemic) [Example 212, 5-[4-amino-5-(trifluoromethyl)pyrrolo[2,1-f][1,2,4]triazin-7-yl]-N-{1-[(1-cyclopropyl-1H-1,2,3,4-tetrazol-5-yl)methyl]-4-fluoropyrrolidin-3-yl}-2-methoxypyridine-3-carboxamide] | 0.479 |
| COCc1cc(-c2cnc(OC)c(C(=O)N[C@@H]3CN(C(=O)C4CC(F)(F)C4)C[C@@H]3F)c2)n2ncnc(N)c12 [Example 492, 5-[4-amino-5-(methoxymethyl)pyrrolo[2,1-f][1,2,4]triazin-7-yl]-N-[(3R,4S)-1-(3,3-difluorocyclobutanecarbonyl)-4-fluoropyrrolidin-3-yl]-2-methoxypyridine-3-carboxamide] | 0.0067 |
| COc1cc(F)c(-c2cc(C(F)(F)F)c3c(N)ncnn23)cc1C(=O)N[C@@H]1CN(C(=O)C2CC(F)(F)C2)C[C@@H]1F [Example 568, 5-[4-amino-5-(trifluoromethyl)pyrrolo[2,1-f][1,2,4]triazin-7-yl]-N-[(3R,4S)-1-(3,3-difluorocyclobutanecarbonyl)-4-fluoropyrrolidin-3-yl]-4-fluoro-2-methoxybenzamide] | 0.0052 |
| COc1ncc(-c2cc(C(F)(F)F)c3c(N)ncnn23)cc1C(=O)N[C@@H]1CN(S(=O)(=O)C2=CCCCC2)C[C@@H]1F [Example 1486, 5-[4-amino-5-(trifluoromethyl)pyrrolo[2,1-f][1,2,4]triazin-7-yl]-N-[(3R,4S)-1-(cyclohex-1-ene-1-sulfonyl)-4-fluoropyrrolidin-3-yl]-2-methoxypyridine-3-carboxamide] | 0.0042 |
| COc1ncc(-c2cc(Cn3cccn3)c3c(N)ncnn23)cc1C(=O)N[C@@H]1CN(C(=O)C2CC(F)(F)C2)C[C@@H]1F [Example 1709, 5-(5-((1H-pyrazol-1-yl)methyl)-4-aminopyrrolo[2,1-f][1,2,4]triazin-7-yl)-N-((3R,4S)-1-(3,3-difluorocyclobutane-1-carbonyl)-4-fluoropyrrolidin-3-yl)-2-methoxynicotinamide] | 0.014 |
| Nc1ncnn2c(-c3ccc(F)c(C(=O)NCCC(O)c4ccccc4)c3)cc(C(F)(F)F)c12 (stereo not shown) [Example 245, 5-[4-amino-5-(trifluoromethyl)pyrrolo[2,1-f][1,2,4]triazin-7-yl]-2-fluoro-N-(3-hydroxy-3-phenylpropyl)benzamide] | 0.16 |
| COc1ncc(-c2cc(Cn3cnc(C)c3)c3c(N)ncnn23)cc1C(=O)N[C@@H]1CN(C(=O)C2CC(F)(F)C2)C[C@@H]1F [Example 1705, 5-(4-amino-5-((4-methyl-1H-imidazol-1-yl)methyl)pyrrolo[2,1-f][1,2,4]triazin-7-yl)-N-((3R,4S)-1-(3,3-difluorocyclobutane-1-carbonyl)-4-fluoropyrrolidin-3-yl)-2-methoxynicotinamide] | 0.15 |
| COc1ncc(-c2cc(C(F)(F)F)c3c(N)ncnn23)cc1C(=O)N(C)[C@@H]1CN(C(=O)[C@@](C)(OC)C(F)(F)F)C[C@@H]1F [Example 1347, 5-(4-amino-5-(trifluoromethyl)pyrrolo[2,1-f][1,2,4]triazin-7-yl)-N-((3R,4S)-4-fluoro-1-((R)-3,3,3-trifluoro-2-methoxy-2-methylpropanoyl)pyrrolidin-3-yl)-2-methoxy-N-methylnicotinamide] | 0.213 |
| Cc1ncc(-c2cc(C(F)(F)F)c3c(N)ncnn23)cc1C(=O)NCC(O)C(O)c1ccccc1 (stereo not shown) [Example 1769, 5-(4-amino-5-(trifluoromethyl)pyrrolo[2,1-f][1,2,4]triazin-7-yl)-N-(2,3-dihydroxy-3-phenylpropyl)-2-methylnicotinamide] | 0.0076 |
| Nc1ncnn2c(-c3ccc(F)c(C(=O)N[C@@H]4CN(C(=O)C5CCC(F)(F)C5)C[C@@H]4F)c3)cc(C(F)(F)F)c12 (stereo partly drawn) [Example 257, 5-[4-amino-5-(trifluoromethyl)pyrrolo[2,1-f][1,2,4]triazin-7-yl]-N-[(3R,4S)-1-(3,3-difluorocyclopentanecarbonyl)-4-fluoropyrrolidin-3-yl]-2-fluorobenzamide] | 0.032 |
| CCc1ccc(-c2cc(C(F)(F)F)c3c(N)ncnn23)c(F)c1C(=O)N[C@@H]1CN(C(=O)CC(F)(F)F)C[C@@H]1F [Example 735, 3-[4-amino-5-(trifluoromethyl)pyrrolo[2,1-f][1,2,4]triazin-7-yl]-6-ethyl-2-fluoro-N-[(3R,4S)-4-fluoro-1-(3,3,3-trifluoropropanoyl)pyrrolidin-3-yl]benzamide] | 0.105 |
| Cc1ccc(-c2cc(CN3CCC(F)(F)CC3)c3c(N)ncnn23)cc1C(=O)N[C@@H]1CN(C(=O)C(C)(C)C(F)(F)F)C[C@@H]1F [Example 1645, 5-{4-amino-5-[(4,4-difluoropiperidin-1-yl)methyl]pyrrolo[2,1-f][1,2,4]triazin-7-yl}-N-[(3R,4S)-4-fluoro-1-(3,3,3-trifluoro-2,2-dimethylpropanoyl)pyrrolidin-3-yl]-2-methylbenzamide] | 0.0025 |
| Cc1nc(C)c(-c2cc(C(F)(F)F)c3c(N)ncnn23)cc1C(=O)N[C@@H]1CN(C(=O)c2ccc(F)cc2F)C[C@@H]1F [Example 1184, 5-[4-amino-5-(trifluoromethyl)pyrrolo[2,1-f][1,2,4]triazin-7-yl]-N-[(3R,4S)-1-(2,4-difluorobenzoyl)-4-fluoropyrrolidin-3-yl]-2,6-dimethylpyridine-3-carboxamide] | 0.023 |
| Cc1c(F)cc(-c2cc(C(F)(F)F)c3c(N)ncnn23)cc1C(=O)N[C@@H]1CN(C(=O)c2ccccc2F)C[C@@H]1F [Example 669, 5-[4-amino-5-(trifluoromethyl)pyrrolo[2,1-f][1,2,4]triazin-7-yl]-3-fluoro-N-[(3R,4S)-4-fluoro-1-(2-fluorobenzoyl)pyrrolidin-3-yl]-2-methylbenzamide] | 0.003 |
| CCc1ccc(-c2cc(C(F)(F)F)c3c(N)ncnn23)c(F)c1C(=O)N[C@@H]1CN(C(=O)C2CCC(F)(F)C2)C[C@@H]1F (stereo partly drawn) [Example 743, 3-[4-amino-5-(trifluoromethyl)pyrrolo[2,1-f][1,2,4]triazin-7-yl]-N-[(3R,4S)-1-(3,3-difluorocyclopentanecarbonyl)-4-fluoropyrrolidin-3-yl]-6-ethyl-2-fluorobenzamide] | 0.0088 |
| CC(C)(CF)C(=O)N1C[C@H](F)[C@H](NC(=O)c2cccc(-c3cc(C(F)(F)F)c4c(N)ncnn34)c2)C1 [Example 88, 3-[4-amino-5-(trifluoromethyl)pyrrolo[2,1-f][1,2,4]triazin-7-yl]-N-[(3R,4S)-4-fluoro-1-(3-fluoro-2,2-dimethylpropanoyl)pyrrolidin-3-yl]benzamide] | 0.117 |
